# Data published in patent US20260201033A1 (LTZ THERAPEUTICS, published 2026).
# Like-named read-outs stand apart in the source and are kept apart here.
# B1: HER2/3A7 (2+2 A) Fc-silenced (bispecific antibody, human IgG1, kappa)
# heavy: [about 450 residues with a human IgG1 Fc not given here]
# light: [about 200 residues not given here]GGGGSGGGGSGGGGSAVVMTQTPASVEAAVGGTVTINCQASQRINNYLSWFQQKPGQPPKLLIYGAATLASGVPSRFKGSGSGTEYTLTISDLEPADAATYYCQCTYGIPSSNYGFGGGTEVVVKGGGGSGGGGSGGGGSGGGGSQSLEESGGDLVKPGASLTLTCTASGFSFSGMYWICWVRQAPGKGLEWIACIYTGSSTTGYASWAKGRFTISKTSSTTVTLQMTSLTAADTATHFCASPYGDSSHYRGLNLWGPGTLVTVSS
# notes: also called HER2/3A7 (2+2) Fc-LALAPG
# B2: HER2/5C7 (2+2 A) Fc-silenced (bispecific antibody, human IgG1, kappa)
# heavy: [about 450 residues with a human IgG1 Fc not given here]
# light: [about 200 residues not given here]GGGGSGGGGSGGGGSAIVMTQTPSSKSVPVGDTVTINCQASESVDRNNRLAWFQQKPGQPPKLLIYTTSTLASGVPSRFKGSGSGTHFTLTISDVVPDDAATYYCAGYRGAHTDGDAFGGGTEVVVKGGGGSGGGGSGGGGSGGGGSQSLEESGGDLVKPGASLTLTCTASGFSFSRSSYMCWVRQAPGKGLEWIGCLSVGDGHTYYASWAKGRFTISKTSSTSVTLQMTRLTAADTATYFCARAPSYSGDGGHGYDLWGPGTLVTVSS
# notes: also called HER2/5C7 (2+2) Fc-LALAPG
# B3: HER2/5C7 (2+2 A) Fc-optimized (bispecific antibody, human IgG1, kappa)
# heavy: [about 250 residues not given here][about 200 residues not given here]
# light: [about 200 residues not given here]GGGGSGGGGSGGGGSAIVMTQTPSSKSVPVGDTVTINCQASESVDRNNRLAWFQQKPGQPPKLLIYTTSTLASGVPSRFKGSGSGTHFTLTISDVVPDDAATYYCAGYRGAHTDGDAFGCGTEVVVKGGGGSGGGGSGGGGSGGGGSQSLEESGGDLVKPGASLTLTCTASGFSFSRSSYMCWVRQAPGKCLEWIGCLSVGDGHTYYASWAKGRFTISKTSSTSVTLQMTRLTAADTATYFCARAPSYSGDGGHGYDLWGPGTLVTVSS
# notes: also called HER2/CLEC5A (2+2 A) Fc-optimized antibody
# Tests used:
# [1] = biological target: T1, Human C-type lectin domain family 5 member A (CLEC5A), endogenous on human monocytes and M0 macrophages (human, UniProt Q9NY25 1-188); assay: flow cytometry on human M0 macrophages, anti-human IgG PE
# T1 construct: Endogenous CLEC5A on primary human monocytes and monocyte-derived M0 macrophages; also called MDL-1; M0 macrophages (CLEC5A+) cells
# T1 sequence: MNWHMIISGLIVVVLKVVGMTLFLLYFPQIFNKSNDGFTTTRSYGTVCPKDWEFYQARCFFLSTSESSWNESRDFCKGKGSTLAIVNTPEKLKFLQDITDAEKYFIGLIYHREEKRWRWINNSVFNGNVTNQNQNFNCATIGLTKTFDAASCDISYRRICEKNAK
# HER2 on SK-BR-3 cells [2] = biological target: HER2 on SK-BR-3 cells (UniProt P04626); assay: cell-based or functional assay
# HER2 on SK-BR-3 cells [3] = biological target: HER2 on SK-BR-3 cells (UniProt P04626); assay: cell-based or functional assay; remark: listed apart in the source
# HER2 on SK-BR-3 cells [4] = biological target: HER2 on SK-BR-3 cells (UniProt P04626); assay: cell-based or functional assay; remark: listed apart in the source
# [5] = biological target: T2, Human CLEC5A His Tag protein (ACROBiosystems, Cat #: CLA-H5243) (human, UniProt Q9NY25 28-188, limits assumed); assay: ELISA, plate coated with human CLEC5A
# T2 construct: Bought protein with a His tag; also called recombinant human CLEC5A protein
# T2 sequence: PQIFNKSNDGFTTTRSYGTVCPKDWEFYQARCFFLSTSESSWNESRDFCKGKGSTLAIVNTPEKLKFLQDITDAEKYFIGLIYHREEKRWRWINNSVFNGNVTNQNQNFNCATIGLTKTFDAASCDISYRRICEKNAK
# [6] = biological target: T1, Human C-type lectin domain family 5 …; assay: flow cytometry on human M0 macrophages, anti-human IgG PE; remark: listed apart in the source
binder,measurement,setting,value
B1,EC50,[1],1.18 nM
same,"IC50 (nM), SK-BR-3 cell killing by M0 macrophages (E:T 5:1)",HER2 on SK-BR-3 cells [2],0.0408 nM
B2,EC50,[1],3.12 nM
same,"IC50 (nM), SK-BR-3 cell killing by M0 macrophages (E:T 5:1)",HER2 on SK-BR-3 cells [2],0.0614 nM
same,"IC50 (nM), SK-BR-3 cell killing by M0 macrophages in the presence of hIgG1",HER2 on SK-BR-3 cells [3],0.00761 nM
same,"IC50 (nM), SK-BR-3 cell killing by M0 macrophages in the presence of media",HER2 on SK-BR-3 cells [3],0.0142 nM
same,"IC50 (nM), SK-BR-3 cell killing by M0 macrophages in the presence of plasma",HER2 on SK-BR-3 cells [3],0.0677 nM
B3,"IC50 (nM), SK-BR-3 cell killing by M1 macrophages",HER2 on SK-BR-3 cells [4],0.0323 nM
same,"IC50 (nM), SK-BR-3 cell killing by M2 macrophages",HER2 on SK-BR-3 cells [4],0.00655 nM
same,"IC50 (nM), SK-BR-3 cell killing by M0 macrophages (E:T 5:1)",HER2 on SK-BR-3 cells [2],0.006 nM
same,"IC50 (nM), SK-BR-3 cell killing by M0 macrophages in the presence of hIgG1",HER2 on SK-BR-3 cells [3],0.00486 nM
same,"IC50 (nM), SK-BR-3 cell killing by M0 macrophages in the presence of media",HER2 on SK-BR-3 cells [3],0.00683 nM
same,"IC50 (nM), SK-BR-3 cell killing by M0 macrophages in the presence of plasma",HER2 on SK-BR-3 cells [3],0.0238 nM
same,EC50,[5],0.089 µg/mL
same,EC50,[6],10.8 nM
